Test results taken from PMC4336329 (PLoS ONE, 2015).
Out of some 310,000 compounds screened, about 2,200 (0.71%) showed an effect of 50% or more. The effect is printed as a negative number. This is one part of the list.

Target: human ether-à-go-go-related gene (hERG) potassium channel (human, UniProt Q12809)
Assay: primary screen, population patch clamp on CHO cells stably expressing hERG

human ether-à-go-go-related gene (hERG) potassium channel, sequence (Q12809 whole entry, looked up): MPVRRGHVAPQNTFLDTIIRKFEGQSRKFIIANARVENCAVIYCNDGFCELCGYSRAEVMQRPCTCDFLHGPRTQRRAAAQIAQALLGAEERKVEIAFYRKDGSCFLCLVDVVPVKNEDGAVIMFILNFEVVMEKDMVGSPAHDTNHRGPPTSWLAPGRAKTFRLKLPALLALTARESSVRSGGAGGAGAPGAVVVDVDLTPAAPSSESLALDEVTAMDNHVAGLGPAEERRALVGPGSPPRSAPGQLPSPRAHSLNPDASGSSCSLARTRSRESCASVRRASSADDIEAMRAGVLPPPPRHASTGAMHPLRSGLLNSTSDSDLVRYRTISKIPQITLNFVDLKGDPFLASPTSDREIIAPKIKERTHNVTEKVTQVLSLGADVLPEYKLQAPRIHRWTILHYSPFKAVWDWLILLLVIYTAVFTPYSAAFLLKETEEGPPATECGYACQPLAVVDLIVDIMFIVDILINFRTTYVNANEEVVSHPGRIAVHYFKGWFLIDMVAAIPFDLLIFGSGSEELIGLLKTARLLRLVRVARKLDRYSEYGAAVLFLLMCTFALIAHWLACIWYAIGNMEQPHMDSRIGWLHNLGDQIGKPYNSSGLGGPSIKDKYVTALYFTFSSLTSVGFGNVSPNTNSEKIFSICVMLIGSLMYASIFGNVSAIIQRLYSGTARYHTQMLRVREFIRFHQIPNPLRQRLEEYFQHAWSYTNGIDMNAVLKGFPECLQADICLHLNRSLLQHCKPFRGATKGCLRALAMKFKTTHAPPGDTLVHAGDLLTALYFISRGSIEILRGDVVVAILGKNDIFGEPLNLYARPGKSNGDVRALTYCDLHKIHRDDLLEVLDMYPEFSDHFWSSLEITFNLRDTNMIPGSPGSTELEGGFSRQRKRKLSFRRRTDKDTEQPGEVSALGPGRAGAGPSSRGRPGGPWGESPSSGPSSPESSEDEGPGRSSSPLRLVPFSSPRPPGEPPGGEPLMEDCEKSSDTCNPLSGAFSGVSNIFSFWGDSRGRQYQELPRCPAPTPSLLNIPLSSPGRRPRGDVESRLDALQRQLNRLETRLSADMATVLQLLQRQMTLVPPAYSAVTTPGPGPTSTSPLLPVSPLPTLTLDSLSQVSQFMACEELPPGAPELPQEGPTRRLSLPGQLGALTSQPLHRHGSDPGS

Going from `O=C(O)c1ccccc1NC(=S)NC(=O)c1cccc2ccccc12` to `O=C(Nc1ccc(Br)cn1)c1cccc2ccccc12`, the “hERG current change (%, negative = inhibition) at 1uM” value rises from 9.59% to 14.1%.

First: Brc1ccc(N=NNc2ccccc2)cc1
Second: COc1ccc(C(=O)CC(=O)C(=O)Nc2ccccc2)cc1
The “hERG current change (%, negative = inhibition) at 1uM” value of the first is higher: 18.7% for the first, 4.29% for the second.

First: O=c1[nH]cnc2c1sc1nc(C(F)F)cc(-c3ccccc3)c12
Second: O=c1c2ccccc2ccc2ccc(P(=O)(O)O)cc12
The “hERG current change (%, negative = inhibition) at 1uM” value of the first is higher: 4.07% for the first, -30.3% for the second.

Going from `COCCNC(=O)COc1ccc(C)cc1C(=O)c1cc(C#N)c(=O)n(C2CC2)c1` to `COC(=O)c1cc(S(=O)(=O)NCC2CCN(Cc3cc(C)ccc3C)CC2)cn1C`, the “hERG current change (%, negative = inhibition) at 1uM” value falls from 9.98% to 1.06%.

Compared with `CN(C(=O)COC(=O)C1CCN(S(=O)(=O)c2cccs2)CC1)c1ccccc1`, `O=C(COC(=O)C1CC(=O)N(c2ccccc2)C1)c1ccccc1` (stereo not shown) is lower in “hERG current change (%, negative = inhibition) at 1uM” value: 2.54% for the first, 1.02% for the second.

First: CC(C)(C)c1ccc(/C=N/N2CCN(c3ccccn3)CC2)cc1
Second: OC(CN1CCN(c2ccccn2)CC1)Cn1c2ccc(Cl)cc2c2cc(Cl)ccc21 (stereo not shown)
The “hERG current change (%, negative = inhibition) at 1uM” value of the first is higher: 6.71% for the first, -0.825% for the second.

Going from `COC(=O)CC1(C(=O)OC)Oc2ccc(Br)cc2C(=O)N1c1cc(Cl)cc(Cl)c1` (stereo not shown) to `COc1ccccc1CCC(=O)OCC(=O)Nc1c(Br)cc(C)cc1Br`, the “hERG current change (%, negative = inhibition) at 1uM” value rises from 9.12% to 11.4%.

Going from `O=C(CCc1nnc2ccc(NCc3ccco3)nn12)Nc1cccc(F)c1` to `Nn1c(SCC(=O)Nc2ccc3c(c2)OCO3)nnc1-c1ccncc1`, the “hERG current change (%, negative = inhibition) at 1uM” value falls from 15.6% to 4.32%.

Compared with `COc1ccccc1Nc1nc(N)nc(CSC(=S)N2CCOCC2)n1`, `CCCn1c2ccccc2c2cnn(CC(=O)N3CCOCC3)c(=O)c21` is lower in “hERG current change (%, negative = inhibition) at 1uM” value: 7.43% for the first, 7.27% for the second.

Going from `O=C(Nc1cccc(S(=O)(=O)NC2=NCCC2)c1)c1cc(=O)[nH]c2ccccc12` to `O=C(Nc1ccc2c(c1)S(=O)(=O)N=C1CCCCCN12)c1ccccc1Cl`, the “hERG current change (%, negative = inhibition) at 1uM” value falls from 9.28% to 0.457%.

Going from `CCOc1ccccc1NC(=O)c1cc(C(=O)c2cc(Br)ccc2O)coc1=N` to `O=C(Nc1ccccc1C(=O)NCc1cccnc1)c1ccccc1Cl`, the “hERG current change (%, negative = inhibition) at 1uM” value falls from 18.4% to 9.12%.

Going from `COc1ccc(NC(=O)c2ccc(S(=O)(=O)N(C)C)cc2)cc1OC` to `COc1ccc(S(=O)(=O)N2CCSC2c2ccc(OC)c(OC)c2)cc1` (stereo not shown), the “hERG current change (%, negative = inhibition) at 1uM” value rises from 2.04% to 7%.

Going from `CCS(=O)(=O)NCC(c1ccco1)N1CCN(c2ccccc2)CC1` (stereo not shown) to `O=C(Nc1ccccc1)Nc1cc(S(=O)(=O)N2CCOCC2)ccc1N1CCCC1`, the “hERG current change (%, negative = inhibition) at 1uM” value falls from 10.7% to 9.98%.

Going from `Cc1cc(C)c(S(=O)(=O)c2ccc(F)cc2C)c(Cl)n1` to `Cc1cc(SCCC(=O)O)nc2c(C)cccc12`, the “hERG current change (%, negative = inhibition) at 1uM” value falls from 12.6% to 12%.

Compared with `O=C(Nc1cc(Cl)ccc1-n1cncn1)c1ccc([N+](=O)[O-])s1`, `O=C(Nc1cc(Cl)ccc1Cl)c1noc2c1CCCC2` is higher in “hERG current change (%, negative = inhibition) at 1uM” value: 4.39% for the first, 14% for the second.

First: Cc1cc(N/N=C/c2ccncc2)c([N+](=O)[O-])cc1[N+](=O)[O-]
Second: Cn1c(/C(C#N)=C/c2ccncc2)nc2ccccc21
The “hERG current change (%, negative = inhibition) at 1uM” value of the first is higher: 10.7% for the first, -7.88% for the second.

Going from `COc1cc(C(=O)Oc2cccc(Nc3ncnc4ccccc34)c2)cc(OC)c1OC` to `COc1cc(CNCc2ccccc2)cc(Cl)c1OC.Cl`, the “hERG current change (%, negative = inhibition) at 1uM” value rises from 4.04% to 8.62%.

First: CCC(CC)C(=O)Nc1cccc(C(=O)Nc2ccc(S(N)(=O)=O)cc2)c1
Second: NS(=O)(=O)c1cccc(NS(=O)(=O)c2ccc(/C=C/C(=O)OCC(=O)c3ccccc3)cc2)c1
The “hERG current change (%, negative = inhibition) at 1uM” value of the first is lower: 11.9% for the first, 18.2% for the second.

Going from `CCOc1cc(/C=C2\NC(=O)NC2=O)ccc1OC(C)C(=O)O` (stereo not shown) to `Cc1ccc(C2C(=O)NC(=O)NC2=O)cc1`, the “hERG current change (%, negative = inhibition) at 1uM” value rises from 13.4% to 15.8%.

First: C/C(=N/NC(=O)c1ccco1)c1ccc(NC(=O)c2ccc(F)cc2)cc1
Second: CC(=O)c1ccc(NC(=O)C2=CC(c3cccs3)=NS(=O)(=O)N2C)cc1
The “hERG current change (%, negative = inhibition) at 1uM” value of the first is higher: 16.6% for the first, 14.6% for the second.

Going from `Cc1cc(S(=O)(=O)NCc2ccccc2)ccc1OCC(=O)NCc1cccnc1` to `COc1ccccc1NC(=O)CN(c1ccccc1C)S(C)(=O)=O`, the “hERG current change (%, negative = inhibition) at 1uM” value rises from 9.38% to 11.9%.

Going from `CC1(c2ccc3noc(-c4ccc(Cl)cc4)c3c2)OCCO1` to `Clc1ccc(C2=NCCn3nc4ccccc4c32)cc1`, the “hERG current change (%, negative = inhibition) at 1uM” value falls from 10.9% to 9.46%.

Compared with `O=c1[nH]cc(S(=O)(=O)N2CCOCC2)c(=O)[nH]1`, `O=C(CS(=O)(=O)c1c[nH]c2ccccc12)N1CCc2ccccc21` is lower in “hERG current change (%, negative = inhibition) at 1uM” value: 1.01% for the first, -1.88% for the second.

Compared with `Cc1ccc(CNC(=O)CCS(=O)(=O)c2ccc(Br)s2)cc1`, `CCN(CC)S(=O)(=O)c1ccc2c(c1)N(CC(=O)NCc1ccco1)C(=O)CO2` is lower in “hERG current change (%, negative = inhibition) at 1uM” value: 17.8% for the first, 13.5% for the second.

Going from `CC(=O)Oc1c2occc2cc2ccc(=O)oc12` to `COc1ccc(-c2csc(NC(=O)c3c(C)noc3C)n2)cc1`, the “hERG current change (%, negative = inhibition) at 1uM” value rises from 0.628% to 5.78%.

Compared with `CCOC(=O)N1C(=O)[C@@](c2ccc(Cl)cc2)(C(C)C)N1C(=O)OCC`, `CCOC(=O)N1CCN(C(=O)C(NC(=O)c2ccc(CC)cc2)C(C)C)CC1` (stereo not shown) is lower in “hERG current change (%, negative = inhibition) at 1uM” value: 19.5% for the first, -4.46% for the second.

Going from `CCOCCSc1nnc2nc(C)cc(C)n12` to `Cc1cc(C)nc(Nc2nc3ccccc3s2)n1`, the “hERG current change (%, negative = inhibition) at 1uM” value rises from 9.38% to 10.7%.

Compared with `CCCNC(=O)NS(=O)(=O)c1cnccc1Sc1ccc(Cl)c(Cl)c1`, `CCSc1nnc(NC(=O)c2ccccn2)s1` is higher in “hERG current change (%, negative = inhibition) at 1uM” value: -0.137% for the first, 4.02% for the second.

Compared with `CCOC(=O)C1=C(C(F)(F)F)Nc2ncnn2C1c1ccc(OC)cc1OC` (stereo not shown), `COc1ccc(C2C3=C(Nc4ncnn42)c2ccccc2CCC3)cc1` (stereo not shown) is lower in “hERG current change (%, negative = inhibition) at 1uM” value: 18.9% for the first, 1.1% for the second.

First: COc1cccc(O)c1CN1CCC(C(=O)Nc2ccc(-c3cccc(C)c3)cc2)CC1
Second: Cc1ccc(-c2nnc(SCC(=O)N3CCOCC3)nc2-c2ccc(C)cc2)cc1
The “hERG current change (%, negative = inhibition) at 1uM” value of the first is higher: 17.4% for the first, 11.6% for the second.

Compared with `COc1cc2c(cc1OC)C(SC)=NC1(CCCC1)C2`, `COC(=O)c1cc(OC)c(OC)cc1NC(=O)CCc1ccc(C)o1` is higher in “hERG current change (%, negative = inhibition) at 1uM” value: 13.8% for the first, 15.2% for the second.

Compared with `CCOC(=O)CC(NC(=O)c1ccco1)c1ccc(OC)cc1` (stereo not shown), `CCOC(=O)Cn1nc(C)n(-c2ccc(C)cc2)c1=O` is lower in “hERG current change (%, negative = inhibition) at 1uM” value: 13.5% for the first, 1.14% for the second.

First: Clc1ccccc1CONc1ncnc2nonc12
Second: O=c1c(F)cn(C2CCCO2)c(=O)n1Cc1ccccc1Cl (stereo not shown)
The “hERG current change (%, negative = inhibition) at 1uM” value of the first is lower: 7.67% for the first, 14.9% for the second.

Compared with `CC(C)(C)OC(=O)N1CCC(C(=O)O)CC1`, `COc1ccc2[nH]cc(C(O)CN3CCC(C(N)=O)CC3)c2c1` (stereo not shown) is higher in “hERG current change (%, negative = inhibition) at 1uM” value: 8.68% for the first, 11.1% for the second.

Compared with `CC(C)CCOc1ccc(C(=O)NN2C(=O)NC3(CCCCC3)C2=O)cc1`, `Br.N=C1c2ccccc2CN1NC(=O)COc1ccc(Cl)cc1` is lower in “hERG current change (%, negative = inhibition) at 1uM” value: 2.74% for the first, -2.04% for the second.

First: CN(C)C(=O)NC(Nc1ccc(Cl)cc1Cl)C(Cl)(Cl)Cl (stereo not shown)
Second: COC(=O)c1cccc(NC(=O)C(C)(C)C)c1
The “hERG current change (%, negative = inhibition) at 1uM” value of the first is lower: 4.33% for the first, 16.3% for the second.

First: CCOC(=O)c1c(-c2ccccc2)csc1NC(=O)CSc1nnnn1C
Second: CCCc1nc(SCC(=O)Nc2ccccc2)c2c(=O)n(C)c(=O)n(C)c2n1
The “hERG current change (%, negative = inhibition) at 1uM” value of the first is lower: -5.16% for the first, 11.6% for the second.

Going from `CC(=O)NCCOc1cccc(OCCNC(C)=O)c1` to `COC(=O)[C@H](CC(C)C)NC(=O)N1CCN(c2cccc(C(F)(F)F)c2)CC1`, the “hERG current change (%, negative = inhibition) at 1uM” value rises from 5.84% to 7.59%.

Going from `CC1(C)Cc2ccccc2-c2n[nH]c(=S)n21` to `CC(C)CC(=O)/C=C/n1c(=S)oc2ccccc21`, the “hERG current change (%, negative = inhibition) at 1uM” value rises from 10.2% to 12.9%.

Going from `O=C(OC1CCN(c2ncc(C(F)(F)F)cc2Cl)CC1)c1ccc(Cl)cc1` to `COc1nccc(C(F)(F)F)c1C(=O)NC(=O)Nc1ccccc1`, the “hERG current change (%, negative = inhibition) at 1uM” value falls from 9.85% to -1.81%.

Compared with `COc1cc(C(=O)NC(CCSC)C(=O)OCC(=O)C(C)(C)C)cc(OC)c1OC` (stereo not shown), `CC(C)(C)n1cnc(C(N)=O)c1N` is lower in “hERG current change (%, negative = inhibition) at 1uM” value: 16.7% for the first, -1.88% for the second.

Going from `Cc1ccc(-n2[nH]c(C)c(C=NC34CN5CN(CN(C5)C3)C4)c2=O)cc1C` to `CC(=O)N1CCN(c2ccc(Nc3nc(C)nc4c3oc3ccccc34)cc2)CC1.Cl`, the “hERG current change (%, negative = inhibition) at 1uM” value falls from 9.68% to -20.2%.

Going from `CC1CCc2c(sc3nc(CN4CCOCC4)nc(Sc4ccccc4)c23)C1` (stereo not shown) to `CC1CCc2c(sc(N)c2C(N)=O)C1` (stereo not shown), the “hERG current change (%, negative = inhibition) at 1uM” value falls from 14.8% to 1.53%.

Going from `O=C(CN1C(=O)CSc2ccccc21)NC1CCCC1` to `Cc1ccnn1CC(=O)N/N=C/c1ccc2c(c1)OCO2`, the “hERG current change (%, negative = inhibition) at 1uM” value falls from 0.689% to -9.14%.

Going from `COc1ccc(CCN2C(=O)C(Oc3ccccc3)C2c2ccc3c(c2)OCO3)cc1` (stereo not shown) to `NC(=O)CCCc1nc(-c2ccccc2)no1`, the “hERG current change (%, negative = inhibition) at 1uM” value falls from 9.31% to 5.77%.

For `CC1(C)CC(=O)C2=C(C1)OC(N)=C(C#N)C2c1ccsc1` (stereo not shown), the “hERG current change (%, negative = inhibition) at 1uM” value was 2.57%.
